# Out of some 310,000 compounds screened, about 14,000 (4.5%) showed an effect of 50% or more. The effect is printed as a negative number. The list shows a part of the results.
# Target: human ether-à-go-go-related gene (hERG) potassium channel (human, UniProt Q12809)
# Experiment: primary screen, population patch clamp on CHO cells stably expressing hERG
# 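Further: peak tail current of the secondary pulse compared with the same well before compound.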
# human ether-à-go-go-related gene (hERG) potassium channel, sequence (Q12809 whole entry, looked up): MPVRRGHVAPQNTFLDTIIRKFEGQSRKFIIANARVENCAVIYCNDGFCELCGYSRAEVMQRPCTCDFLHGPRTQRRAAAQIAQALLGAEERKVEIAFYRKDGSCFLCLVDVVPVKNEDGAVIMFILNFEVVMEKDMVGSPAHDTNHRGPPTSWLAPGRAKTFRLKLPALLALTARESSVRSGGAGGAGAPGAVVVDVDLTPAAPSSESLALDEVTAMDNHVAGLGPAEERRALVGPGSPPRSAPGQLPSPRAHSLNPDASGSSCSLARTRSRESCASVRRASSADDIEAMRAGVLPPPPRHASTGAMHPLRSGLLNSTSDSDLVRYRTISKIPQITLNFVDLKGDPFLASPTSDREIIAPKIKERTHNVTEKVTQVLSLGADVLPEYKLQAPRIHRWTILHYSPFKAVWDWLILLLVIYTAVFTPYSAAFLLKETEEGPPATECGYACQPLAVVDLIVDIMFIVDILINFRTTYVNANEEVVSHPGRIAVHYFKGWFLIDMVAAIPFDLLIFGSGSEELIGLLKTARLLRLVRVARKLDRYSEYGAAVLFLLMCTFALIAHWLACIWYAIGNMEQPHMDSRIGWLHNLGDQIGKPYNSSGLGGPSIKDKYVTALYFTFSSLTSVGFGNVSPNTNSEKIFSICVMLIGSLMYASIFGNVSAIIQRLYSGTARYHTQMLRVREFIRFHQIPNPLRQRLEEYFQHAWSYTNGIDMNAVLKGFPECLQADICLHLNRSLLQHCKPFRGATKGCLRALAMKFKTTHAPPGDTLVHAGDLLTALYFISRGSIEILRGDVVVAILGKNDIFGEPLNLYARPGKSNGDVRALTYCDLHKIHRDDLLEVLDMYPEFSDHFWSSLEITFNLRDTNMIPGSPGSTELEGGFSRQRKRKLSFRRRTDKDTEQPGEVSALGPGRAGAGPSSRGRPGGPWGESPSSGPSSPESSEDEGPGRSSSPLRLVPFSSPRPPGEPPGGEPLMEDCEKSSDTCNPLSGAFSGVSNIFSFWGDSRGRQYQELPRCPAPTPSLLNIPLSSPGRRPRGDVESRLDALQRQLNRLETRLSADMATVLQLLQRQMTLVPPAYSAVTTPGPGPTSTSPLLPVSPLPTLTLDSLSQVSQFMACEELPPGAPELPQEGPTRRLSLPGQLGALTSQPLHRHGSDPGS
row,SMILES,"hERG current change (%, negative = inhibition) at 10uM [%]"
1,OCCC1CN(Cc2cnc(-c3ccccc3)s2)CCN1C1CCCCC1 (centres unmarked),-51.4
2,Cc1ccc(/C=C2\C(=N)N3N=C(CC(=O)N4CCOCC4)SC3=NC2=O)o1,12.2
3,CC(C)OC(=O)CSc1nnc(CNc2nc(-c3ccccc3)cs2)n1C,-20.4
4,O=C(NCN1CCN(c2ccccc2F)CC1)c1cccnc1,-5.7
5,N/C(Cc1cccs1)=N\OC(=O)COc1ccc(Cl)cc1Cl,-14.8
6,Cc1nc2sc3c(c2c(=O)n1NC(=O)CCBr)CCCC3,5.16
7,O=C(Cn1nc(Cl)nc1Cl)c1ccccc1,-2.26
8,O=C(NNC1=Nc2cccc3cccc1c23)c1ccccc1Br,5.44
9,CC12CCC(=O)N1C(C(=O)Nc1nc(-c3ccc(F)c(F)c3)cs1)CS2 (centres unmarked),22.7
10,O=c1c2ccccc2[nH]c(=S)n1C1CCCCC1,24.4
11,CCOC(=O)c1cc(C)sc1/N=C/C1C(=O)CC(C)(C)CC1=O,-1.26
12,CCCOc1ccc(C(=O)CCN2CCCCC2)cc1.Cl,-31.6
13,O=S(=O)(NC1=NCCC1)c1cccs1,3.23
14,S=c1nc(C2COc3ccccc3O2)[nH][nH]1 (centres unmarked),27.7
15,CCN(CC(=O)NCc1ccc(Cl)cc1)Cc1cc(=O)n2ccsc2n1,-42.2
16,CCOC(=O)C(C)n1cnc2c(nnn2Cc2ccc(C)cc2)c1=O (centres unmarked),1.29
17,O=C(O)c1cc(-c2ccc(Cl)cc2)n(-c2ccc(F)cc2)n1,3.09
18,CCCn1c(C(C)NC(=O)c2ccccc2)n[nH]c1=S (centres unmarked),12.7
19,Cc1c([N+](=O)[O-])cc(C(=O)Nc2ccc(NC(=O)c3ccco3)cc2)cc1[N+](=O)[O-],17.2
20,COc1ccc(C(=O)NCC(=O)N2CCCCC2)cc1OC,36.2
21,Nc1nc(NCC(=O)O)nc(N2CCCCCC2)c1[N+](=O)[O-],5.52
22,CC1(C)CC(C(N)=S)CCO1 (centres unmarked),26.5
23,COc1cccc(NC(=O)CN(C)C(=O)c2cc3c(s2)CCC3)c1,17.8

row,SMILES,"hERG current change (%, negative = inhibition) at 10uM [%]"
1,CCc1nonc1NC(=O)c1oc2ccc(F)cc2c1C,15.6
2,COc1ccc(/C=C(\C#N)c2nc3ccc(C)cc3[nH]2)cc1Oc1ccc(C(F)(F)F)cc1[N+](=O)[O-],15.4
3,Cc1cccc(C)c1NC(=O)/C(C#N)=C/c1ccc(-c2ccc(C(=O)O)cc2)o1,-3.38
4,Br.O=C(Cn1c(NCCCO)nc2ccccc21)c1ccc(Br)cc1,-24.7
5,CC(=O)Nc1ccc(NC(=O)C(NS(=O)(=O)c2cccc3nsnc23)C(C)C)cc1 (centres unmarked),31.5
6,CCCCCCCn1c(C)nnc1-c1cnn(C)c1N,8.24
7,COc1cc(-c2nc3cccc(C)n3c2NCC2CCCO2)ccc1O (centres unmarked),-51.4
8,COc1ccc(-c2c(N)n[nH]c2C)cc1OC,6.13
9,C=CCOc1ccc(C(=O)n2cc(C(=O)OC)c3ccccc32)cc1,9.62
10,CC1CC(=O)Nc2ccccc2N1C(=O)Cn1cnc2ccccc2c1=O (centres unmarked),11.5
11,CCN(CC)C(=O)c1sc(NC(=O)c2ccc(C)c([N+](=O)[O-])c2)c(C#N)c1C,15.4
12,COC(=O)c1ccc(CSc2ncnc3c2nnn3-c2ccc(F)cc2)o1,1.31
13,CN(C)c1ccc(C2OC(=O)C(C)(C)C(=O)C2(C)C)cc1 (centres unmarked),16.4
14,Cc1ccc(N2C(=O)C3C4CC(=O)C(c5ccccc54)C3C2=O)cc1C (centres unmarked),-12.3
15,CCn1ncc(/C=N\NC(=O)c2cc(-c3ccc(C)cc3C)nc3ccccc23)c1C,-8.84
16,COc1cc(NC(=O)Cc2ccc(OC)c(S(=O)(=O)N3CCOCC3)c2)c(OC)cc1Cl,-25.1
17,CCCCONc1ncnc2nonc12,2.78
18,CCN(CC)C(=O)Cc1cn(C)c2ccccc12,16.8
19,Cc1nn(-c2ccccc2)c(C)c1S(=O)(=O)O,1.05
20,COc1ccc(/C=C/C(=O)CCC(=O)O)cc1,17.5
21,Cc1cccc(C2N=C(N)Nc3nc4ccccc4n32)c1 (centres unmarked),4.65
22,COc1ccc(C(=O)NC2CCCCCC2)cc1OC1CCN(C(C)=O)CC1,-4.48
23,CCOc1ccc(NC(=O)NCCCCc2ccccc2)cc1,18.4

row,SMILES,"hERG current change (%, negative = inhibition) at 10uM [%]"
1,COc1cc(OC)cc(C(=O)NC(C(=O)Nc2ccc3c(c2)OCCO3)C(C)C)c1 (centres unmarked),-11
2,O=C(CSc1nnc(-c2ccco2)o1)NC1CCCCCC1,-22.7
3,O=C1C2CCCN2C(c2ccccc2)N1c1cccc(Cl)c1 (centres unmarked),-7.9
4,COCc1cc(=O)[nH]c(/N=C(\N)Nc2cccc(Cl)c2)n1,21
5,CC(C)Sc1nc(SCC(=O)O)c2c3c(sc2n1)COC(C)(C)C3,-6.1
6,Cc1cccc(NC(=O)CCOc2ccccc2)c1C,-10.5
7,COc1ccc([N+](=O)[O-])cc1N(CC(=O)NCC1CCCO1)S(C)(=O)=O (centres unmarked),11.4
8,CCCCN1C(=O)C(NC(=O)C2CC2)(C(F)(F)F)C2=C1CC(C)(C)CC2=O (centres unmarked),10.9
9,C/C(=N\NC(=O)c1ccccc1Br)c1ccc(N2CCOCC2)cc1,7.65
10,Clc1ccc(-n2nnnc2CN2CCOCC2)cc1Cl,7.26
11,CCN(CC(=O)NCc1cccs1)C(=O)/C=C/c1ccc(OC)cc1OC,-26.4
12,CCCn1c(N)c(N(CCOC)C(=O)c2ccc([N+](=O)[O-])cc2Cl)c(=O)[nH]c1=O,24.9
13,CCc1ccc(OCC(=O)NNC(=O)CSc2nnc(-c3ccc(C)cc3)n2C)cc1,-5.02
14,COc1ccc(CNC(=O)CSc2nnc3c(Cl)cc(C(F)(F)F)cn23)cc1OC,-5.83
15,CCOC(=O)N1CCC(Nc2c(NCCN3CCN(Cc4ccccc4)CC3)c(=O)c2=O)CC1,-1.53
16,CN(C)c1ccc(N=Cc2c(O)n(CCC3=CCCCC3)c(=O)[nH]c2=O)cc1,0.675
17,O=C(CSc1nnc(C2CC2)n1-c1ccccc1)NCCN1C(=O)CSC1=O,10
18,CCN(CC(=O)NC1CCS(=O)(=O)C1)C(=O)c1ccc(S(=O)(=O)N(CC)CC)cc1 (centres unmarked),4.99
19,O=C(N/N=C/c1ccncc1)c1ccc(NC(=O)c2cccc(Cl)c2)cc1,22.7
20,COc1ccc(N2CC(C(=O)NCc3cccnc3)CC2=O)cc1 (centres unmarked),1.33
21,CCn1ncc([N+](=O)[O-])c1C(=O)N1CCc2ccccc2C1,5.81
22,Cc1nc(N)c2c(Cc3cccc4ccccc34)nn(C(C)(C)C)c2n1,8.82
23,COC(=O)c1ccc(C(=O)OC)c(NC(=S)N2CCC(N3CCCCC3)CC2)c1,-15

row,SMILES,"hERG current change (%, negative = inhibition) at 10uM [%]"
1,Cc1cc(C)c(C)c(S(=O)(=O)NC(C(=O)O)C(C)C)c1C (centres unmarked),34.3
2,O=C1N(Cc2cccc(Cl)c2)C[C@@H]2C[C@@H](c3cccc4cccnc34)N3CCC[C@@]123,-78
3,Cc1c(Cc2ccccc2)c(=O)oc2c(C)c(OCC(=O)NCC3CCC(C(=O)O)CC3)ccc12 (centres unmarked),15.7
4,Cn1nnnc1SCC(=O)Nc1ccccc1C(N)=O,37
5,O=C(CN(C(=O)CNC(=O)c1ccco1)c1ccc(F)c(Cl)c1)NC1CCCCC1,3.86
6,CCOC(=O)CCSc1nc(-c2ccc3c(c2)OCO3)cc(C(F)(F)F)c1C#N,13.2
7,Cc1cccc(-c2nc(CSCC(=O)NCCCN3CCOCC3)c(C)o2)c1,-11.3
8,Cn1c(=O)cc(SCC(=O)NCC2COc3ccccc3O2)c2ccccc21 (centres unmarked),-14.2
9,CCn1c(SCC(=O)N2CCCC2)nnc1-c1ccc(N)cc1,8.63
10,COCCn1c(SCC(=O)Nc2ccc(Cl)cn2)nnc1-c1ccncc1,-54.2
11,c1ccc(Nc2nc(-c3ccccc3)ns2)cc1,22.8
12,COc1cccc(NC(=O)CN2C(=O)CSc3ccc(S(=O)(=O)N4CCCCC4)cc32)c1,0.476
13,Cc1cc(C)cc(N=c2c([N+](=O)[O-])nn(-c3ccc4c(c3)OCCO4)n2O)c1,1
14,CCN(CC)c1ccc(N=Cc2c(O)n(-c3cc(OC)ccc3OC)c(=O)[nH]c2=O)cc1,12.3
15,O=c1cc(CSc2nnc3ccccn23)c2c(ccc3ccccc32)o1,-23.5
16,CC(C)(C)NC(=O)C(=O)NNC(=O)c1ccccc1,5.58
17,Cc1cccn2c(=O)c3cc(C(=O)NCCN4CCOCC4)c(=N)n(CCc4ccccc4)c3nc12,-75
18,CCc1nnc(NC(=O)c2ccc(S(C)(=O)=O)cc2)s1,-12.6
19,COc1ccc2[nH]c(=O)c(CN(C(=O)c3cccnc3)c3ccc(C)c(C)c3)cc2c1,14.3
20,CCn1nc(C(=O)Nc2nc(-c3ccccn3)cs2)c2ccccc2c1=O,-2.53

# From PMC4336329 (PLoS ONE, 2015)
